# Experimental data: patent US9868789B2, “Synergistic combinations of OX40L antibodies for the treatment of GvHD” (Kymab Limited, priority 2015, dated 2018)
# T1: CHO-S expressed hOX40L (Homo sapiens, UniProt P23510)
# T1 construct: expressed in transfected cells
# T1 sequence (P23510 1-183): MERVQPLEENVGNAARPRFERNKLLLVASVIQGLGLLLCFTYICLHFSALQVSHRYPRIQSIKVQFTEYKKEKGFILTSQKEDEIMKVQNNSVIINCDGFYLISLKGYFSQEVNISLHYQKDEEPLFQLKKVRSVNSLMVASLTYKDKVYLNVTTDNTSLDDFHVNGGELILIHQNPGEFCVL
# Target: T1, CHO-S expressed hOX40L
# Assay: FACS binding to CHO-S expressed hOX40L
# Conditions: binding to hOX40L expressed on CHO-S cells; YES
# Procedure: CHO-S cells expressing hOX40L or untransfected CHO-S cells, diluted in FACS buffer (PBS+1% w/v BSA+0.1% w/v NaN3) were distributed to a 96 well V-bottom plate (Greiner) at a density of 1×10^5 cells per well. Cells were washed with 150 μL of PBS and centrifuged at 300×g for 3 min. Supernatant was aspirated and 150 μL of PBS added. This wash step was repeated.
# 25 μL of hybridoma supernatant or purified antibody from hybridoma supernatant diluted in FACS buffer was added to the washed cells and incubated for 10-15 minutes. Reference Antibody or mouse IgG1 control antibody (Sigma) were diluted in FACS buffer to 20 μg/mL and 25 μL added to cells. 25 μL of human OX40R Fc (in-house) diluted to 1000 ng/mL in FACS buffer were then added to wells. Cells were incubated at 4° C. for 30 minutes. […]
# To fix cells 100 μL 2% v/v paraformaldehyde was added and cells incubated for 30 minutes at 4° C., cells were pelleted by centrifugation 300×g and the plates and resuspended in 50 μL of FACS buffer. PE and APC signal intensity (geomean) was measured by flow cytometry using a BD FACS Array instrument.
# % of control binding was calculated using geomean fluorescence as described in equation 1 where total binding was defined as reference antibody at 10 μg/mL and non-specific binding as mouse IgG1 antibody at 10 μg/mL. % receptor binding was calculated using Equation 3. […]
molecule,measurement,value
"19H01 (hybridoma): murine/human chimeric anti-hOX40L antibody from hybridoma; VH SEQ ID No:94, VL SEQ ID No:108 (antibody, listed as Homo Sapiens, V domains shown) VH: [about 100 residues not spelt out]DFLWFGEFPFDYWGQGTLVTVSS VL: DIQMTQSPSSLSASVGDRVTITCRASQGISNYLAWYQQKPGKIPKLLIYAASTLQSGVPSRFSGSGSGTDFTLTISSLQPEDVATYYCQKYNSAPRTFGQGTKVEIK",FACS Binding,YES
